Among all 150,000 compounds or so, about 180 (0.12%) were called active. Inconclusive means that the source gave no clear call. Such entries were picked first, then a sample of the others. Calls come from the whole dose curve; as a rule, active = well fitted cell-killing curve with a large enough effect; inconclusive = small, poorly fitted or top-dose-only effect, or effect the other way; inactive = flat fitted curve, though single readings scatter. A potency beside an inconclusive call is a rough fit, not a confirmed value.
Assay: GF-AFC viability counterscreen for inhibitors of alpha-synuclein gene (SNCA) expression; note: nearly all actives have a fitted effect of over 30% in size;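 for activity change, negative = cytotoxicity: 0% = DMSO-treated cells and -100% = medium-only wells without cells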
Settings: HEK-293-SNCA-luc viability, GF-AFC fluorescence, 24 h; activity change, negative = cytotoxicity: at 57.1 µM (top of the series) unless noted
Summary of the method: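 HEK-293-SNCA-luc cells (1500/well) plated 24 h, then exposed 24 h to a dilution series; GF-AFC added 30 min at 37C, fluorescence 405/540 nm; normalised to medium-only and DMSO wells, Hill fit.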
For `Cc1cc2nc3n(c(=O)c2n1CC(=O)N1CCc2ccccc21)CCCCC3`, the Potency was inconclusive: 2.51 µM [cytotoxic, full curve, poor fit]. In the case of `Cc1cc2nc3c(=O)[nH]c(=O)nc-3n(CC(O)C(O)C(O)CO)c2cc1C` (centres undefined), the Potency is reported as inconclusive: 38.3 µM [rising, single point]. In the case of `O=C(Cn1cccc1-c1nc(-c2ccccc2)no1)Nc1cccc(F)c1`, the Potency is reported as inconclusive: 1.26 µM [rising, full curve]. With `CC1=C[C@@H](CNC(=O)C2CC2)[C@H](C(C)C)C[C@H]1Cc1nnc(-c2ccccc2F)o1` the Potency was inconclusive: 14.1 µM [cytotoxic, partial curve, poor fit]. With `CNc1cccc(CCOc2ccc3c(c2)CN(CC(F)(F)F)C(=O)[C@H](CC(=O)O)C3)n1` the Potency was inconclusive: 1.89 µM [cytotoxic, full curve, poor fit]. For `O=C([C@H]1C[C@H](Oc2cccnc2)CN1C(=O)NC1CCCC1)N1CCOCC1`, the Potency was inconclusive: 39.8 µM [cytotoxic, single point]. For `C[S+](=O)([O-])N1CCN(C(=O)c2nc3cccnc3n(Cc3ccccc3)c2=O)CC1`, the activity change, negative = cytotoxicity was inactive: 3.05% [at 12.5 µM]. In the case of `CCn1ncc(N2CCC(NC(=O)c3ccc4c(c3)OCO4)CC2)cc1=O`, the Potency is reported as inconclusive: 11.2 µM [cytotoxic, partial curve, poor fit]. In the case of `C[C@H]1[C@@H]2[C@@H](O)C([C@H](C)C(=O)NCc3ccc(F)cc3)CC[C@@]2(C)CC[C@@H]1NC(=O)C1CCCCC1` (some centres undefined), the “activity change, negative = cytotoxicity” value is reported as inactive: -14.4%. For `CCCc1noc(-c2cccn3c(CNC(=O)c4ccc(F)cc4)nnc23)n1`, the “activity change, negative = cytotoxicity” value was inactive: -12.9%. In the case of `C=Cc1ccc(CSc2nc(-c3ccc(C)cc3)nc3c2Cc2c(CO)cnc(C)c2O3)cc1`, the Potency is reported as inconclusive: 39.8 µM [cytotoxic, single point]. In the case of `Cc1ccc(-c2noc([C@@H]3C[C@H](NC(=O)Nc4cccc(F)c4)CN3C)n2)cc1`, the Potency is reported as inconclusive: 44.7 µM [cytotoxic, single point]. For `O=C(c1ccc(CSc2nc3ccncc3n2Cc2ccccc2)cc1)N1CCCCCC1`, the Potency was inconclusive: 28.2 µM [cytotoxic, single point]. In the case of `CC1=C(CO)CC(C(C)C2CCC3C4CC=C5CC(OC6OC(COC7OC(CO)C(O)C(O)C7O)C(O)C(O)C6O)CC(O)C5(C)C4CCC23C)OC1=O` (centres undefined), the “activity change, negative = cytotoxicity” value is reported as inactive: -23.4% [at 23.9 µM]. With `Cc1cc(C)c(CNC(=O)c2nc(-c3cccc(F)c3)cc3c2ccn3C(C)C)c(=O)[nH]1` the Potency was inconclusive: 35.5 µM [cytotoxic, single point]. With `COC(=O)[C@H](Cc1ccc(OC)cc1)NC(=O)[C@H]1CN(C(=O)c2ccc(N(C)C)cc2)CCN1S(=O)(=O)c1ccccc1` the Potency was inconclusive: 25.1 µM [cytotoxic, partial curve, poor fit]. With `COc1cccc(C(=O)NCCNC(=O)c2cccc(-c3ccc(SC)cc3)c2)c1` the activity change, negative = cytotoxicity was inactive: 1.36% [at 12.5 µM]. In the case of `CO[C@H]1CN(C(C)C)[C@H]1C1CCN(C(=O)c2cc(C)nn2C)CC1`, the “activity change, negative = cytotoxicity” value is reported as inactive: 4.68%. With `CN1CCN(C(=O)c2cn3cc(-c4cccc(C(F)(F)F)c4)sc3n2)CC1` the “activity change, negative = cytotoxicity” value was inactive: 14%. In the case of `O=C(NCc1ccc(F)cc1)c1nc(-c2cccc(C(F)(F)F)c2)c2ccccn12`, the “activity change, negative = cytotoxicity” value is reported as inactive: 12.8%. For `N#Cc1ccc(CN2CCCCCCNC(=O)[C@@H]3C[C@@H](C(=O)NCCc4cnc[nH]4)C[C@@H]32)cc1`, the “activity change, negative = cytotoxicity” value was inactive: 0.4%. For `CCCC(=O)N1Cc2ccccc2CC2(CCCN(C)C2)C1` (centres undefined), the “activity change, negative = cytotoxicity” value was inactive: -6.05%. In the case of `O=C(NCC1CCCCC1)c1cn2cc(-c3ccc(C(F)(F)F)cc3)sc2n1`, the Potency is reported as inconclusive: 7.08 µM [rising, single point]. For `COCCCNC(=O)C1CCCN1c1nccc(Nc2ccccc2F)n1` (centres undefined), the Potency was inconclusive: 7.08 µM [cytotoxic, single point]. In the case of `COc1ccc(NC(=O)CCn2c(=O)c3cccn3c3ccccc32)c(OC)c1`, the Potency is reported as inconclusive: 11.2 µM [cytotoxic, partial curve]. In the case of `COC1CCN(c2cc(-c3cccnc3)nc3c(C)noc23)CC1`, the “activity change, negative = cytotoxicity” value is reported as inactive: 7.79% [at 87.6 µM]. For `CC1(c2ccccc2)N(Cc2cccnc2)C(=O)OC12CCN(Cc1ccccc1)CC2` (centres undefined), the Potency was inconclusive: 35.5 µM [cytotoxic, partial curve, poor fit]. In the case of `CCn1cc(S(=O)(=O)N2CCC3(CC2)CN(C2CCC2)CC3COC)cn1` (centres undefined), the “activity change, negative = cytotoxicity” value is reported as inactive: 13.3%. In the case of `Cc1ccc(CNCc2c(C(=O)O)n(Cc3ccc(C)cc3)c3cc(C)ccc23)cc1`, the Potency is reported as inconclusive: 28.2 µM [cytotoxic, single point]. In the case of `COc1ccc(-c2nc3cnc(Nc4cccc(OC)c4)nc3n(Cc3cccs3)c2=O)cc1`, the Potency is reported as inconclusive: 3.16 µM [rising, full curve, poor fit]. For `CCC1(N2CCN(C(=O)Nc3cc(Cl)ccc3OC)CC2)CCN(C(=O)NC)C1` (centres undefined), the Potency was inconclusive: 39.8 µM [cytotoxic, single point]. In the case of `O=C(Nc1ccc(Cl)cc1)N1CCN(c2ccc3nnc(-c4ccccc4)n3n2)CC1`, the Potency is reported as inconclusive: 3.98 µM [cytotoxic, single point]. In the case of `O=C1C(N2CCN(Cc3ccc[nH]3)CC2)CCN1Cc1ccccn1` (centres undefined), the “activity change, negative = cytotoxicity” value is reported as inactive: -2.1%. With `COc1ccc(-c2ccnc(N[C@H]3CO[C@H]4[C@@H]3OC[C@@H]4NC(=O)c3ccc4c(c3)OCO4)n2)cc1` the Potency was inconclusive: 28.2 µM [cytotoxic, single point]. In the case of `COc1ccc(NC(=O)Cn2nc(C)c3nn(-c4ccc(Cl)cc4)c(C)c3c2=O)cc1`, the Potency is reported as inconclusive: 3.55 µM [cytotoxic, partial curve, poor fit]. For `COC(=O)CNC(=O)c1nc(-c2ccc(Cl)cc2Cl)c2cnccn12`, the “activity change, negative = cytotoxicity” value was inactive: 1.71%. For `Cc1nn2c(c1-c1ccccc1C(C)C)N(Cc1cccc(C(=O)O)c1)CCC2`, the Potency was inconclusive: 12.6 µM [cytotoxic, partial curve]. For `COc1cccc(CN2Cc3nc(-c4cc(F)cc(F)c4)ccc3OCC2=O)c1`, the Potency was inconclusive: 56.2 µM [cytotoxic, single point]. With `O=C1c2c(nc(COc3ccc4c(c3)OCO4)n2Cc2ccccc2)NCCN1Cc1cccc(Cl)c1` the Potency was inconclusive: 25.1 µM [cytotoxic, single point].

— PubChem BioAssay AID1671193 (National Center for Advancing Translational Sciences (NCATS), 2021)
Potency is the fitted concentration of half-maximal effect; tags give direction and shape of the fitted curve.
